{"source": "PubChem BioAssay AID485341", "about": "(National Center for Advancing Translational Sciences (NCATS), 2010)", "note": "Among all 330,000 compounds or so, about 1,700 (0.52%) were called active. The shares of active, inactive and inconclusive entries below differ from those in the screen. Calls come from the whole dose curve; as a rule, active = well fitted inhibition curve with a large enough effect; inconclusive = small, poorly fitted or top-dose-only effect; inactive = no such curve, though single readings can be large or run the other way. A potency beside an inconclusive call is a rough fit, not a confirmed value. Potency is the fitted concentration of half-maximal effect; tags give direction and shape of the fitted curve."}
{"biological_target": "Beta-lactamase (Escherichia coli (strain K12)) (UniProt P00811)", "sequence (P00811 whole entry, looked up)": "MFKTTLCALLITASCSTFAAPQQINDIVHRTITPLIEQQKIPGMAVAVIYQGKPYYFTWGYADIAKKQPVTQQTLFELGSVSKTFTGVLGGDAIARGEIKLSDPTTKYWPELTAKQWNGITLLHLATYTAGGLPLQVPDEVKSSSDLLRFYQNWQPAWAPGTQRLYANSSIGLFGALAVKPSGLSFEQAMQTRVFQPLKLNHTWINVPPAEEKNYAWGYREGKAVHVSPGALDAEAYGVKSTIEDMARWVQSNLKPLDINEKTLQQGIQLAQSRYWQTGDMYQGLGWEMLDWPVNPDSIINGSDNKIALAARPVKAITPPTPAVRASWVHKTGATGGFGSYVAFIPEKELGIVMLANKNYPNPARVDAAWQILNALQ", "assay": "qHTS Inhibitors of AmpC Beta-Lactamase (assay without detergent); note: nearly all actives have a fitted effect of over 20% in size;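 for activity change, negative = inhibition: plate controls were no compound for no effect and no enzyme for full effect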", "settings": "AmpC nitrocefin hydrolysis, absorbance 480 nm, 0.0001% Triton; activity change, negative = inhibition: at 57.1 µM (top of the series) unless noted", "how_it_was_run": "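AmpC (5.3 nM in the dispensed reagent) in 20 mM phosphate pH 7.0 with 0.01% (detergent screen) or 0.0001% Triton X-100 was preincubated with compounds for 15 min at room temperature. Nitrocefin was then added from an 800 uM solution, and hydrolysis was followed at 480 nm.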"}
{"smiles": "O=c1c(Cc2ccc(Cl)cc2)c(O)ccn1Cc1ccccc1", "Potency": "inconclusive: 4.47 µM [inhibitor, single point]"}
{"smiles": "CCCCn1c(N)c(N(CCOC)C(=O)COc2ccc(Cl)cc2)c(=O)[nH]c1=O", "activity change, negative = inhibition": "inactive: -17.4%"}
{"smiles": "Cc1cc(/C=C(\\C#N)C(=O)Nc2ccccc2)c(C)n1-c1ccc2c(c1)OCO2", "Potency": "inconclusive: 39.8 µM [inhibitor, single point]"}
{"smiles": "Cc1ccc(C2Oc3ccccc3C3=C2C(c2cccs2)n2ncnc2N3)cc1", "note": "(stereo not given)", "activity change, negative = inhibition": "inactive: -20.1%"}
{"smiles": "O=C(Nc1ccc(Br)c2ccccc12)c1ccc2ccccc2c1O", "activity change, negative = inhibition": "inactive: -34%"}
{"smiles": "Clc1ccccc1CSc1nnc(-c2ccco2)c(-c2ccco2)n1", "Potency": "inconclusive: 7.94 µM [inhibitor, full curve, poor fit]"}
{"smiles": "COc1ccc(C(CNC(=O)c2cc3ccccc3cc2O)N2CCOCC2)cc1", "note": "(stereo not given)", "Potency": "inconclusive: 28.2 µM [inhibitor, single point]"}
{"smiles": "O=C(Nc1ccccc1SCC1CSc2nc3ccccc3c(=O)n21)c1cccc(Cl)c1", "note": "(stereo not given)", "Potency": "inconclusive: 6.31 µM [inhibitor, single point]"}
{"smiles": "CC1(C)CC(CCNS(=O)(=O)c2ccccc2)(c2ccccc2)CCO1", "note": "(stereo not given)", "activity change, negative = inhibition": "inactive: 30.5%"}
{"smiles": "CCOC(=O)c1nnc(-c2ccccc2)nc1Oc1ccc(Cl)cc1", "Potency": "inconclusive: 4.47 µM [inhibitor, single point]"}
{"smiles": "CCc1ccc(CN(C)C(=O)c2cc(S(=O)(=O)N3CCN(CC)CC3)ccc2Cl)cc1", "activity change, negative = inhibition": "inactive: 165%"}
{"smiles": "CNC(=S)N1C2CCC1CC(NC(=O)NC13CC4CC(CC(C4)C1)C3)C2", "note": "(stereo not given)", "Potency": "inconclusive: 6.31 µM [inhibitor, single point]"}
{"smiles": "O=C(N/N=C/c1ccc([N+](=O)[O-])o1)c1cn(-c2ccccc2)nc1-c1ccc(Cl)cc1", "Potency": "inconclusive: 3.16 µM [inhibitor, partial curve, poor fit]"}
{"smiles": "O=C(/C=C/c1ccc(Br)cc1)NC(=O)c1ccccc1O", "activity change, negative = inhibition": "inconclusive: -85.4% [inhibitor]"}
{"smiles": "Cc1sc2nc(C(C)C)nc(SCC(=O)N3CCN(C(=O)c4ccco4)CC3)c2c1C", "activity change, negative = inhibition": "inactive: 146%"}
{"smiles": "O=C(/C=C/c1ccc(F)cc1)NC(=S)NNC(=O)[C@H]1C[C@@H]1c1ccccc1", "Potency": "active: 10 µM"}
{"smiles": "COc1ccc2nc(N3C(=O)/C(=C/c4ccccc4)NC3=S)sc2c1", "Potency": "inconclusive: 3.55 µM [inhibitor, full curve, poor fit]"}
{"smiles": "Cc1c(C)n(Cc2ccccc2)c2ncnc(NCCN(C)C)c12", "activity change, negative = inhibition": "inactive: 17.7%"}
{"smiles": "CCOC(=O)c1sc(NCc2ccco2)c(-c2nc3ccccc3s2)c1N", "Potency": "active: 11.2 µM"}
{"smiles": "O=C(Cn1c(=O)c2c(ncn2C2CCCC2)n(Cc2ccccc2)c1=O)N1CCc2ccccc21", "activity change, negative = inhibition": "inactive: 5.04%"}
